Experimental data reported in the supplement of paper PMC12297408.
Counter-ions that a name gives are not always drawn. Screen size: about 1,300 compounds; about 40 (3%) showed activity. Some of the results follow.

Tested on: Plasmodium falciparum NF54/iGP1_RE9H ulg8 stage V gametocytes
Assay: gametocyte viability (luciferase signal relative to DMSO control) (% of DMSO control); higher = less gametocytocidal activity, active = 50 or less
Details: exposure time: 72 h
Outline: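 Compounds from 10 mM DMSO stocks were spotted at nanolitre scale into 96-well plates, and day-12 stage V NF54/iGP1_RE9Hulg8 gametocytes (~2.5% gametocytemia, 3% hematocrit; medium with 0.5% Albumax II) were added to reach 10 µM or 1 µM, one well per concentration. The plates were kept at 37 °C for 72 h. Luminescence was then read on an IVIS Lumina II after mixing 90 µl of culture with 10 µl D-luciferin (30 mg/ml). Viability values are relative to the plate's mean DMSO vehicle signal.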

Structure (SMILES)	gametocyte viability (concentration: 1 µM)	gametocyte viability (concentration: 10 µM)
CC[C@H](C)C(=O)O[C@H]1C[C@@H](C)C=C2C=C[C@H](C)[C@H](CC[C@@H]3C[C@@H](O)CC(=O)O3)[C@H]21 [Lovastatin]	inactive: 85.3	inactive: 81.4
CN(C)CCn1nnnc1SCC1=C(C(=O)O)N2C(=O)[C@@H](NC(=O)Cc3csc(N)n3)[C@H]2SC1 [Cefotiam hydrochloride]	inactive: 85	inactive: 82.3
CC(=O)N[C@@H](CS)C(=O)O [Acetylcysteine]	inactive: 92.9	inactive: 89.2
CC(=O)O[C@H]1C[C@@]2(C)[C@@H](C[C@@H](O)[C@H]3[C@@]4(C)CC[C@@H](O)[C@@H](C)[C@@H]4CC[C@@]32C)/C1=C(\CCC=C(C)C)C(=O)O [Fusidic acid sodium salt]	inactive: 83	inactive: 85.5
CC1=C(/C=C/C(C)=C/C=C/C(C)=C/C(=O)O)C(C)(C)CCC1 [Retinoic acid]	inactive: 82.1	inactive: 64
NC(=O)c1cc[n+](CC2=C(C(=O)[O-])N3C(=O)[C@@H](NC(=O)[C@@H](c4ccccc4)S(=O)(=O)O)[C@H]3SC2)cc1 [Cefsulodin sodium salt]	inactive: 89.2	inactive: 87.7
CC(=O)Oc1ccccc1C(=O)O [Acetylsalicylic acid]	inactive: 81.5	inactive: 84.8
N=C(N)NS(=O)(=O)c1ccc(N)cc1 [Sulfaguanidine]	inactive: 90.6	inactive: 94.3
CC1(C)[C@H](C(=O)O)N2C(=O)C[C@H]2S1(=O)=O [Sulbactam]	inactive: 86.3	inactive: 90
Cc1ncc(CO)c(CO)c1O [Pyridoxine hydrochloride]	inactive: 106	inactive: 101
CCc1c(C)[nH]c2c1C(=O)C(CN1CCOCC1)CC2 (stereo not drawn) [Molindone hydrochloride]	inactive: 86.1	inactive: 84.6
CCC1(c2ccccc2)NC(=O)N(C)C1=O (stereo not drawn) [Mephenytoin]	inactive: 83	inactive: 77
N[C@@H]1CONC1=O [D-cycloserine]	inactive: 86.9	inactive: 85.8
O=C(O)COCCN1CCN(C(c2ccccc2)c2ccc(Cl)cc2)CC1 (stereo not drawn) [Cetirizine dihydrochloride]	inactive: 96.2	inactive: 96
C#C[C@]1(OC(C)=O)CC[C@H]2[C@@H]3CCC4=CC(=NO)CC[C@@H]4[C@H]3CC[C@@]21CC (mixture of isomers) [Norgestimate]	inactive: 82.8	inactive: 85.1
Clc1ccc(CO/N=C(\Cn2ccnc2)c2ccc(Cl)cc2Cl)c(Cl)c1 [Oxiconazole Nitrate]	inactive: 83.7	inactive: 59.4
CC(=O)O[C@]1(C(C)=O)CC[C@H]2[C@@H]3C=C(Cl)C4=CC(=O)[C@@H]5C[C@@H]5[C@]4(C)[C@H]3CC[C@@]21C [Cyproterone acetate]	inactive: 95.4	inactive: 93
Clc1ccc(Cn2c(CN3CCCC3)nc3ccccc32)cc1 [Clemizole hydrochloride]	inactive: 85.4	inactive: 91.7
COc1cc2nc(N(C)CCCNC(=O)C3CCCO3)nc(N)c2cc1OC (stereo not drawn) [Alfuzosin hydrochloride]	inactive: 87.7	inactive: 83
N=C(N)NC(=O)Cc1c(Cl)cccc1Cl [Guanfacine hydrochloride]	inactive: 81.7	inactive: 76.9
Clc1ccc(CSC(Cn2ccnc2)c2ccc(Cl)cc2Cl)cc1 (stereo not drawn) [Sulconazole nitrate]	inactive: 95.6	inactive: 68.9
CC1CNc2c(cccc2S(=O)(=O)N[C@@H](CCCNC(=N)N)C(=O)N2CC[C@@H](C)C[C@@H]2C(=O)O)C1 (stereo partly drawn) [Argatroban]	inactive: 91.7	inactive: 77.5
CN(C)CCN(Cc1ccccc1)c1ccccn1 [Tripelennamine hydrochloride]	inactive: 89.8	inactive: 61
Nc1ccn([C@@H]2O[C@H](CO)[C@@H](O)C2(F)F)c(=O)n1 [Gemcitabine]	inactive: 81.3	inactive: 85.5
CN1C(=O)CC(c2ccccc2)C1=O (stereo not drawn) [Phensuximide]	inactive: 87.7	inactive: 83.1
CC(=O)O[C@@]12CO[C@@H]1C[C@H](O)[C@@]1(C)C(=O)[C@H](O)C3=C(C)[C@@H](OC(=O)[C@H](O)[C@@H](NC(=O)OC(C)(C)C)c4ccccc4)C[C@@](O)([C@@H](OC(=O)c4ccccc4)[C@H]21)C3(C)C [Docetaxel]	inactive: 127	inactive: 117
C[C@]12CC[C@@H]3c4ccc(O)cc4CC[C@H]3[C@@H]1CC[C@@H]2O [Estradiol-17 beta]	inactive: 69.7	active: 41.9

Structure (SMILES)	gametocyte viability (concentration: 1 µM)	gametocyte viability (concentration: 10 µM)
CCCN(CCC)S(=O)(=O)c1ccc(C(=O)O)cc1 [Probenecid]	inactive: 87.8	inactive: 84.1
CN(C)c1cc(NC(=O)CNC(C)(C)C)c(O)c2c1C[C@H]1C[C@H]3[C@H](N(C)C)C(=O)C(C(N)=O)=C(O)[C@@]3(O)C(=O)C1=C2O [Tigecycline]	inactive: 86.6	inactive: 87.9
CC(=O)[C@H]1CC[C@H]2[C@@H]3CCC4=CC(=O)CC[C@]4(C)[C@H]3CC[C@]12C [Progesterone]	inactive: 86.2	inactive: 83.1
CN(C)CC/C=C1/c2ccccc2Sc2ccc(Cl)cc21 [Chlorprothixene hydrochloride]	inactive: 97.1	inactive: 84.1
NC(Cc1cc(I)c(Oc2cc(I)c(O)c(I)c2)c(I)c1)C(=O)O (stereo not drawn) [Thyroxine (L)]	inactive: 80.3	inactive: 84.2
CN(C)CCOC(c1ccccc1)c1ccccc1 [Diphenhydramine hydrochloride]	inactive: 91.2	inactive: 92.6
COc1ccc2[nH]c([S+]([O-])Cc3ncc(C)c(OC)c3C)nc2n1 (stereo not drawn) [Tenatoprazole]	inactive: 90.8	inactive: 79.8
Oc1ncnc2[nH]ncc12 [Allopurinol]	inactive: 80.4	inactive: 84.1
CNCCCC1c2ccccc2C=Cc2ccccc21 [Protriptyline hydrochloride]	inactive: 82.3	inactive: 82.5
CCCCCCC[N+](CC)(CC)CCCCc1ccc(Cl)cc1 [Clofilium tosylate]	inactive: 97.3	active: 47.8
C[C@]12CCC(=O)C=C1CC[C@@H]1[C@@H]2[C@@H](O)C[C@@]2(C)[C@H]1CC[C@]2(O)C(=O)CO [Hydrocortisone base]	inactive: 91.6	inactive: 94.7
CCCc1cc(=O)[nH]c(=S)[nH]1 [Propylthiouracil]	inactive: 91.1	inactive: 86.6
COc1ccc(CCN(C)CCCC(C#N)(c2ccc(OC)c(OC)c2)C(C)C)cc1OC (stereo not drawn) [Verapamil hydrochloride]	inactive: 91.8	inactive: 99.3
Cc1onc(-c2ccccc2)c1-c1ccc(S(N)(=O)=O)cc1 [Valdecoxib]	inactive: 81.3	inactive: 77.3
C[N+]1(CCCCC[N+]2(C)CCCC2)CCCC1 [Pentolinium bitartrate]	inactive: 93.5	inactive: 96.4
CN(N=O)C(=O)N[C@H]1C(O)O[C@H](CO)[C@@H](O)[C@@H]1O (mixture of isomers) [Streptozotocin]	inactive: 84.7	inactive: 92.1
CCCCC(=O)O[C@H]1CC[C@H]2[C@@H]3CCc4cc(O)ccc4[C@H]3CC[C@]12C [Estradiol Valerate]	inactive: 87.7	inactive: 80.2
Cn1c(NCCN(CCO)CCCc2ccc([N+](=O)[O-])cc2)cc(=O)n(C)c1=O [Nifekalant]	inactive: 76.8	inactive: 64.7
N=C(N)c1ccc(OCCCCCOc2ccc(C(=N)N)cc2)cc1 [Pentamidine isethionate]	inactive: 86.2	inactive: 77.7
Fc1ccc(C(c2ccc(F)cc2)N2CCN(C/C=C/c3ccccc3)CC2)cc1 [Flunarizine dihydrochloride]	inactive: 81.5	inactive: 95.1
CN1CCc2c(c3ccccc3n2Cc2ccccc2)C1 [Mebhydroline 1,5-naphtalenedisulfonate]	inactive: 88.8	inactive: 83.3
Nc1nc(Cl)nc2c1ncn2[C@H]1C[C@H](O)[C@@H](CO)O1 [Cladribine]	inactive: 82.9	inactive: 85.7
CN[C@@H]1[C@H](O[C@H]2[C@H](O[C@H]3[C@H](O)[C@@H](O)[C@H](N=C(N)N)[C@@H](O)[C@@H]3N=C(N)N)O[C@@H](C)[C@]2(O)C=O)O[C@@H](CO)[C@H](O)[C@H]1O [Streptomycin sulfate]	inactive: 82.2	inactive: 84.8
OCCOCCN1CCN(C2=Nc3ccccc3Sc3ccccc32)CC1 [Quetiapine]	inactive: 90.5	inactive: 78.8
CC1(C)S[C@@H]2[C@H](NC(=O)[C@H](N)c3ccc(O)cc3)C(=O)N2[C@H]1C(=O)O [Amoxicillin]	inactive: 80.6	inactive: 82.5
COc1cccc2c1C(=O)c1c(O)c3c(c(O)c1C2=O)C[C@@](O)(C(=O)CO)C[C@@H]3O[C@H]1C[C@H](N)[C@H](O)[C@H](C)O1 [Doxorubicin hydrochloride]	inactive: 64.5	active: 19
CCC(=O)O[C@@H](O[P@](=O)(CCCCc1ccccc1)CC(=O)N1C[C@H](C2CCCCC2)C[C@H]1C(=O)O)C(C)C [Fosinopril]	inactive: 82.1	inactive: 83.2
